Reference: the supplement of paper PMC11417369
± gives the standard deviation of the averaged measurements. Some of the results follow.

The sequences below were run on PfAP2-EXP AP2 domain (GST-tagged) (assay: gcPBM binding intensity (ln(normalized median fluorescence intensity)); higher = stronger DNA binding).
In short: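 After 1 h on an Agilent 4 × 180k array of primer-extended double-stranded 36-bp intergenic genomic probes and negative controls, bound GST-tagged P. falciparum DNA-binding domains were detected with Alexa488 anti-GST antibody and scanned at 488 nm. The domains had been expressed in E. coli, and binding took place in 1× PBS with 1% milk, 0.2 mg/ml BSA, 0.5% salmon testes DNA and 0.03% Triton X-100. Binding intensity is the highest Masliner-normalised natural-log median intensity across replicate spots of either probe orientation.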

| Sequence | gcPBM binding intensity (ln) |
| --- | --- |
| TTGTTTTGTAATAAAAAAAAAATAATATAATATAAT [XGTACX_negctrl_site300] | 8.2 ± 0.3 |
| TATATTTATATATATACACACATAATAAAAAATATA [CACACA_site844] | 8.35 ± 0.38 |
| TTTATAGTTTTAAACAAAGTAATACAAATGTATATA [CACACA_negctrl_site1716] | 8.24 ± 0.37 |
| GAAATATTGAAACACACACACAAACATATATATATA [CACACA_site1911] | 9.89 ± 0.11 |
| TATAAAAAAAATAAAATAAAATAAAATAGAAAAATA [TGCATGCA_negctrl_site109] | 8.54 ± 0.5 |
| GAAAAAAAAAAAAAAAGTACATTCTCTATTTCATGT [XGTACX_site3209] | 7.96 ± 0.34 |
| ATAAATTTAAATAGGAGTACACAGCTTTATATTTTG [XGTACX_site4176] | 8.62 ± 0.39 |
| TAATTACCATATGGTACACACATATTTATAGGTATA [CACACA_site7603] | 8.57 ± 0.32 |
| ACGTATAATATGTACACACACATATATACCAAAAAA [CACACA_site4661] | 8.47 ± 0.42 |
| GATAAAATAATATATAGTACTTTTTTAAAATAAATA [XGTACX_site522] | 8.06 ± 0.2 |
| CGCGCACCCAGACACACACACACACCCATATATATA [CACACA_site2203] | 8.9 ± 0.3 |
| AATTTTAAATTTAATTTACACACTTTTCATAGCATT [CACACA_site9264] | 8.46 ± 0.47 |
| TATAAAACACACACACATATATATATATATTTATAT [TGCATGCA_negctrl_site48] | 8.65 ± 0.54 |
| ATTTACAAAAATTTTGTATAAAGGGATTTTAAAATG [TGCATGCA_negctrl_site350] | 8.8 ± 0.81 |
| GACAACGTTTCAATGTGTACATATTTATAATATATA [XGTACX_site2427] | 8.54 ± 0.31 |
| TTTTTTTTTTCTCCTGCATGCAGCATTTATATATTA [TGCATGCA_site390] | 10.3 ± 0.13 |
| TATATATATATATATACATGCATTTTTGTTTGCTTA [TGCATGCA_site256] | 10.1 ± 0.29 |
| TATATATATATATGTACACACATCAATCATATTAAC [CACACA_site1946] | 10.2 ± 0.18 |
| ATTGAAAAACCGTTTAGTACATATCATCACGTTTGT [XGTACX_site1295] | 8.43 ± 0.35 |
| TAAAATAAAATAAGTAGTACATATATAATTATATAT [XGTACX_site6733] | 8.46 ± 0.3 |
| AAAATACGAATATAAACATGCACCATATAGAACAAA [TGCATGCA_site925] | 9.38 ± 0.028 |
| TTTTTTTTTTTTTTTACACACTGCATACAAGAAAAA [CACACA_site5642] | 8.46 ± 0.54 |

| Sequence | gcPBM binding intensity (ln) |
| --- | --- |
| TTTTTACAAAAAAAAAAAAAAAAAATAAAAATAAAT [CACACA_negctrl_site1738] | 8.05 ± 0.69 |
| TACAAATATAGATGCACACACATATACATACCTATA [CACACA_site7094] | 8.64 ± 0.28 |
| AAAACAAACAAAAAAAAAAAAAAAAATATCAATCTA [TGCATGCA_negctrl_site203] | 7.89 ± 0.5 |
| TGAACATCATTTTTATGTACACACACATATACGTTG [XGTACX_site3864] | 8.7 ± 0.34 |
| GACGTGGAAAAAAAAACACACACAAAAAAAAAAAAA [CACACA_site9324] | 8.22 ± 0.46 |
| ATATATCATGCCAAGGGTACAAATGTGTAGTTGAAA [XGTACX_site2820] | 8.88 ± 0.33 |
| TTTTTTAAATATTATTTTTATGAGTAAATATATTAT [GTGCAC_negctrl_site277] | 8.06 ± 0.48 |
| GTACAAAATTGACAAGTGCAAAAATTAAAAGCAAGA [GTGCAC_site9838] | 9.15 ± 0.25 |
| AAAGTATATAGGATACGTACATACATAAATAAATAA [XGTACX_site8216] | 8.84 ± 0.4 |
| TATAAAAATAAGCACACACACAAATATAGATTTATT [CACACA_site6558] | 8.57 ± 0.45 |
| GTGTGAGCACATTCGGGAGAGTTTTTTTTTTTTTTT [CACACA_negctrl_site1776] | 8.48 ± 0.23 |
| ATATATATATAAATATGTACATATATTTATTTCTTT [XGTACX_site3784] | 9.55 ± 0.2 |
| TATATTCAAAATGGTACACACAATATTTAATTGTGC [CACACA_site2631] | 8.35 ± 0.43 |
| ACATTTTCTTATAAATGTACATATATATTATTATAT [XGTACX_site4404] | 8.43 ± 0.29 |
| TGACATATAAAATATTCACACACAAGTTATAGTTCT [CACACA_site9209] | 8.23 ± 0.49 |
| TTAATAGAAATACGTGCACACTAAAGGGAAAACAAT [CACACA_site4923] | 9.31 ± 0.43 |
| ACAAGTATTAATTACACACTCAAAAAGAAAAAACAA [CACACA_site2281] | 8.53 ± 0.6 |
| ATATATTCTATATATACATGCATATATATTATATGT [TGCATGCA_site185] | 8.54 ± 0.23 |
| ATGCAACTATATATATATATTATATGTATGAATAAT [XGTACX_negctrl_site434] | 8.53 ± 0.43 |
| GTTAAATGAAAATATGTACACACTTGAAAATTTTTA [CACACA_site2924] | 8.6 ± 0.4 |
| TGAATAAATATGCAGCGTACATAATCCTCTTAAAAT [XGTACX_site8462] | 8.38 ± 0.28 |
| AAAGATTTAATCTATACATGCAAATATATAGAAAAG [TGCATGCA_site373] | 8.85 ± 0.28 |

| Sequence | gcPBM binding intensity (ln) |
| --- | --- |
| AATAAAAATAGGAAATGTACACATATATATATATAT [XGTACX_site1853] | 10.2 ± 0.64 |
| TATATATACACACACACATGCATGCCGATATATATA [TGCATGCA_site29] | 9.48 ± 0.15 |
| AAAAGATATTTGAATATACACACGATTTAAATTTAA [CACACA_site3865] | 8.44 ± 0.39 |
| GAACAAAATTTTATATGTACATAATATTTATATATA [XGTACX_site3667] | 8.64 ± 0.29 |
| AGATGCCAAGTATAAAGTACATATCAAAATGTATAT [XGTACX_site456] | 8.48 ± 0.38 |
| TTATTTTATTTTTATACACACATGTTTTAATGTTCA [CACACA_site249] | 8.76 ± 0.35 |
| TTTATAATTCCATAATGTACAAATAAAATAAAAAAT [XGTACX_site663] | 8.74 ± 0.35 |
| AAAACTTTTAAAATTTTGTATTCATTCCTTCAACAA [GTGCAC_negctrl_site697] | 8.49 ± 0.38 |
| AAAATTAATGTTGGTTGTACAAAAATTAAATATGGT [XGTACX_site66] | 9.28 ± 0.8 |
| AGGAGGATAGTTCACAGTACCCAGTAACTCTACGAG [XGTACX_site2008] | 8.31 ± 0.57 |
| GTACAAAGGACTATACATAGAAAAATATATATATAT [XGTACX_negctrl_site164] | 9.86 ± 0.23 |
| AATACATTTATGAGCTGTACACATTTATTTGAGCTA [XGTACX_site7695] | 8.51 ± 0.27 |
| AAAGTAACACACTAATATTTTAACAAATAATATATA [GTGCAC_negctrl_site132] | 8.26 ± 0.43 |
| ATATATATTAATATTTGTACATAAAATTATTTCAAT [XGTACX_site5364] | 8.49 ± 0.29 |
| AGTGTAATTTTCCACTGTACTTTTCTTGTATATAAT [XGTACX_site4201] | 8.68 ± 0.35 |
| ATACAAAAAATCACATGTACATATTCTTAAATGGTA [XGTACX_site8502] | 8.47 ± 0.35 |
| AATAATAATTTGAATACACACAATAATATATATATA [CACACA_site2059] | 9.62 ± 0.5 |
| TACCTTTCTTATTATTGAAAAGGAATATATAAATAG [CACACA_negctrl_site272] | 8.32 ± 0.37 |
| TTATATCATTTTCCTGCACACATAAATTTATATAAT [CACACA_site8257] | 8.9 ± 0.38 |
| ACAAAATATACAAAATGTACAAAATATACAAAATGT [XGTACX_site6467] | 8.51 ± 0.16 |
| TTATTCTAAAAGTGTTTGCACTTTTATAATCATATA [GTGCAC_site9929] | 8.13 ± 0.13 |
| TATACAGATAAATACACACACACATATATATATATA [CACACA_site4845] | 10.1 ± 0.14 |

| Sequence | gcPBM binding intensity (ln) |
| --- | --- |
| CATATGTATTTATTCACACATATATATATATATATA [CACACA_site4207] | 10.2 ± 0.4 |
| TATATAAAATAATAATGTACTCATTAAAATTATAGA [XGTACX_site4507] | 8.14 ± 0.34 |
| ATGTATCCAATAGGAGTGCATAATTCTATTAACACC | 8.39 ± 0.3 |
| AAAGAAAAAAAAAAAAAAAAAAAAAAAATTATACAT [CACACA_negctrl_site7] | 8.09 ± 0.56 |
| ATATATATATATATATGTACATATATTCGATTATTA [XGTACX_site557] | 10.29 ± 0.049 |
| ATAATATTTCTTACCTTTGGATGTTCTAATTTTTTT [CACACA_negctrl_site1317] | 8.85 ± 0.5 |
| TACATATTGCACAAATAAAAAAGAACAAAAAAAAAA [CACACA_negctrl_site1200] | 8.62 ± 0.38 |
| GAATTTCGATATATGTGTACGCATTTGTATTATAGG [XGTACX_site6332] | 8.88 ± 0.52 |
| TACTTTATATTATATATATATATATATATATATATA [CACACA_negctrl_site1765] | 10.1 ± 0.29 |
| AAAAATAACATATAAACACACATATATATATATATA [CACACA_site3802] | 10.1 ± 0.49 |
| TACATAAAATATATCACACATATAATATATATATAT [CACACA_site5834] | 9.54 ± 0.16 |
| AAAAAAAAAAAAAAATATAAATATATATATATATAT [GTGCAC_negctrl_site28] | 10 ± 0.28 |
| TATGTATTAAATTTTACACACATGATTCTCTATATA [CACACA_site2298] | 8.55 ± 0.4 |
| AAACGAACATATAAATGTACATATATATACATATAT [XGTACX_site8086] | 8.46 ± 0.5 |
| AATTAAATATTATAAACACACATATATATTATTTTT [CACACA_site865] | 8.15 ± 0.4 |
| TACAAAAAAAATGTATTTAGGACATATATATGTTTA [XGTACX_negctrl_site455] | 8.1 ± 0.38 |
| ATTGTAAATATAGAAGTGCAAAAGGGTATGAAATGA | 9.31 ± 0.36 |
| AGCTATATAAATAATACATGCATTGTTCAGGTATTT [TGCATGCA_site964] | 8.76 ± 0.28 |
| ATTTATAATATTCAAGTGCATATATATTTTTTACTT | 8.77 ± 0.25 |
| TAGTTCCTCAAAAATTTCCTTTGTCATTTTATTCAC [GTGCAC_negctrl_site20] | 8.55 ± 0.57 |
| TACATAAATTAATAGTCACACACGTATTTTTTATAT [CACACA_site8806] | 8.36 ± 0.3 |
| GTTATACAAAATAATACATGCATGTCCTACATATAT [TGCATGCA_site320] | 9.37 ± 0.38 |
